Test results as given in PubChem BioAssay AID1645882 (National Center for Advancing Translational Sciences (NCATS), 2021).
Hit rate of the full screen: of about 16,000 compounds, about 120 (0.75%) were called active. Roughly 4% stayed inconclusive and do not appear here. Calls follow the shape of the dose curve; as a rule, active = well fitted inhibition curve with a large enough effect; inconclusive = small, poorly fitted or top-dose-only effect; inactive = no such curve, though single readings can be large or run the other way. This is one part of the list. Where a SMILES comes first, the peptide text is derived from it.

target: Rap guanine nucleotide exchange factor 3 (Homo sapiens) (UniProt O95398); assay: Validation qHTS for antagonist of cAMP-regulated guanine nucleotide exchange factor 3 (EPAC1); conditions: EPAC1 Rap1B-BODIPY-GDP exchange, fluorescence; series mostly up to 150 µM; activity change, negative = inhibition: at the top concentration; also: nearly all actives have a fitted effect of over 75% in size
Summary of the method: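 EPAC1 (100 nM) mixed with 250 nM RAP1B-BODIPY-GDP and 50 uM GDP; compounds in concentration series, 5 min at room temperature. Fluorescence (ex 480/em 540 nm) read every 5 min for 30 min; normalized to ATA control and DMSO.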

UniProt O95398, sequence (O95398 whole entry, looked up): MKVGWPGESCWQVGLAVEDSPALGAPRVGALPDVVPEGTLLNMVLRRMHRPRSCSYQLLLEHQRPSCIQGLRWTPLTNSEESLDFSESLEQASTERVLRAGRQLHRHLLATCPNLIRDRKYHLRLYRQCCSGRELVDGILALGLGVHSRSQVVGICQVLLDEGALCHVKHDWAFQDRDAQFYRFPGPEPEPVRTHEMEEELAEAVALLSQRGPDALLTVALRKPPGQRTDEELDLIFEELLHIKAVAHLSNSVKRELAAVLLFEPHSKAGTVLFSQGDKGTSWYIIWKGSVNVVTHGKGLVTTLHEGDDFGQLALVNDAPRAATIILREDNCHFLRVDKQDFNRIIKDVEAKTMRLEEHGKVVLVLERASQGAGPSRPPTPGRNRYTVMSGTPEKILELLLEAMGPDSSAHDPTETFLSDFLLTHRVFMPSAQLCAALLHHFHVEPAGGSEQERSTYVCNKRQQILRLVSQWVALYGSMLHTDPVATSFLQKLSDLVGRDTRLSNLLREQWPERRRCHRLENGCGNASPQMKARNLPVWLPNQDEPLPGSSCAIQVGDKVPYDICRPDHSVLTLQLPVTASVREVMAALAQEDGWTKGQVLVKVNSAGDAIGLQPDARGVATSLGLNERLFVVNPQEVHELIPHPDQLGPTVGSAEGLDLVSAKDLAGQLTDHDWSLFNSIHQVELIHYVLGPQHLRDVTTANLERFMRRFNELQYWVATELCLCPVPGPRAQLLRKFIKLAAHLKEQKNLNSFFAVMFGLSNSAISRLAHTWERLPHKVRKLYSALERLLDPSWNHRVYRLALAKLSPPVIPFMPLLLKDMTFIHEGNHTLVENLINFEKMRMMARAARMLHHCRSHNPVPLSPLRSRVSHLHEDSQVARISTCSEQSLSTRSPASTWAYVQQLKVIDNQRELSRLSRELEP

Structure (SMILES)	activity change, negative = inhibition
CC(C)CC(NC(=O)CN)C(=O)NC(Cc1ccccc1)C(=O)O (stereo not drawn) (H-Gly-Leu-Phe-OH; configuration not given here)	inactive: 11.1%
O=C(Oc1ccccc1)N1CCC[C@@]2(CCN(c3ccccc3)C2)C1	inactive: -5.74%
c1ccc(-c2cccc(N3CCCC4(CCNCC4)C3)c2)cc1	inactive: 14.8%
S=C(S)O[C@@H]1C[C@@H]2C[C@H]1[C@@H]1CCC[C@H]21	inactive: -7.86%
COc1ccc(-c2cc(=O)c3c(O)cc(O[C@@H]4O[C@H](CO[C@@H]5O[C@@H](C)[C@H](O)[C@@H](O)[C@H]5O)[C@@H](O)[C@H](O)[C@H]4O)cc3o2)cc1O	inactive: 11.4%
COc1ccc(/C=C2\NC(=O)[C@@H]3Cc4ccccc4CN3C2=O)cc1	inactive: 12%
COCCn1c(=O)c(-c2ccc(OC)cc2)nc2cnc(OC)nc21	inactive: -0.0917%
OC(C[n+]1c(Cl)ccc2ccccc21)c1ccccc1 (configuration not stated)	inactive: 22.3%
N#Cc1ccccc1-c1ccc2ncnc(NCCN3CCOCC3)c2c1	inactive: 11.4%
CNc1ccnc(-c2c(C)noc2C)n1	inactive: 26.4%
Cc1cc(C(=O)NCC2CCC3(CCN(Cc4cccc(F)c4F)CC3)O2)n(C)n1 (configuration not stated)	inactive: 2.05%
COc1ccc(C2CC(=O)c3c(O)cc(O)cc3O2)cc1O (configuration not stated)	inactive: 3.42%
Cc1noc(C)c1-c1nccc(NCc2cccs2)n1	inactive: -5.04%
CCCCC/C=C\C\C=C/C=C/C=C/[C@@H](SC[C@H](NC(=O)CC[C@H](N)C(=O)O)C(=O)NCC(=O)O)[C@@H](O)CCCC(=O)O	inactive: 9.01% [at 1.57 µM]
COc1ccc(C(=O)N2CCN(CC(=O)N3CCOCC3)CC2)cc1	inactive: 5.09%
Cc1ccccc1CN1[C@@H](CC2CCCCC2)COCCS1(=O)=O	inactive: -14.7%
COc1ccc(CN2[C@@H](CC(=O)O)c3ccc(/C=C/C(=O)O)cc3S2(=O)=O)cc1	inactive: 17.5%
CC(=O)OCC(=O)[C@@]1(O)CC[C@H]2[C@@H]3C[C@H](C)C4=CC(=O)C=C[C@]4(C)[C@H]3[C@@H](O)C[C@@]21C	inactive: 18.8%
CCOC(=O)C1=C[C@]2(CC)CCCN3CCc4c(n1c1ccccc41)[C@@H]32	inactive
CC1=C2C(O)C(=O)OC3CC4C(C)(C)C(=O)C=C[C@]4(C)C(CC1)[C@@]23C (some centres not stated)	inactive: 14.9%
Cc1ccc(S[C@@H](CCN2CC[C@H](O)CCC2=O)c2ccccc2)cc1	inactive: 0.828%
COc1ccc(-c2nc3cnc(N(C)C)nc3n(Cc3cccs3)c2=O)cc1	inactive: 5.14%
CC1CN(S(=O)(=O)c2cccc3cnccc23)CCN1 (configuration not stated)	inactive: 10.2% [at 75.8 µM]
COc1ccccc1O	inactive
CC1CNCCN1S(=O)(=O)c1cccc2cnccc12 (configuration not stated)	inactive
CNCCC(Oc1ccccc1OC)c1ccccc1 (configuration not stated)	inactive

Structure (SMILES)	activity change, negative = inhibition
O=C(c1ccncc1)N1CCC2(CC1)CCN(c1ccncc1)CC2	inactive: 20.1%
O=NN(CCCl)C(=O)NC1CCCCC1	inactive: 11.7%
COc1ccc(C(=O)C[n+]2cccc(Br)c2)cc1	inactive: 16.7%
O=C(O)Cc1cn(-c2ccccc2)nc1-c1ccc(Cl)cc1	inactive: 20.4%
Cc1cc(C)cc(C(=O)NCc2nc(-c3cccc(NC(=O)c4ccccn4)c3)oc2C)c1	inactive: 15.5%
Cn1cc(-c2nc3cncnc3n(CCN)c2=O)c2ccccc21	inactive: 2.41%
COc1cnc(NS(=O)(=O)c2ccc(N)cc2)nc1	inactive
CC(C)=CCC/C(C)=C/COc1c2occc2cc2ccc(=O)oc12	inactive: -4.41%
CCCCNC(=O)O[C@@H]1C[C@@H]2CCN3C(=O)CCC[C@H]([C@H]1CC)[C@H]23	inactive: -14.1%
N#CC(C#N)=C(N)/C(C#N)=C/c1ccc2[nH]ccc2c1	inactive
O=C1C2C=CC=CC2=NC(=S)N1CCN1CCC(=C(c2ccc(F)cc2)c2ccc(F)cc2)CC1 (configuration not stated)	inactive: 3.06% [at 75.8 µM]
Cc1ncsc1CCC(=O)N1CCCC(c2nc(-c3ccncc3)ncc2-c2ccccc2)C1 (configuration not stated)	inactive: 1.5%
O=C(O)CCC(=O)Nc1ccc(S(=O)(=O)Nc2nccs2)cc1	inactive
CCCCCCCCCCCCCC[N+](C)(C)Cc1ccccc1	inactive: 5.06%
CC(=O)Nc1ccccc1-c1nc(CNC(=O)c2cccc(F)c2)c(C)o1	inactive: 8.23%
CCOc1ccc(S(=O)(=O)O)c2cccnc12	inactive: 11.2%
CCOC(OCC)P(=O)(O)CCCNCc1ccc(Cl)c(Cl)c1	inactive
Cc1cccc(CN2CCN(C(c3ccccc3)c3ccc(Cl)cc3)CC2)c1 (configuration not stated)	inactive
COc1ccccc1-c1cc(=O)c2cc(O)ccc2o1	inactive: 0.281%
Cn1c(=O)c(CCc2ccccc2)nc2cnc(N3CCOCC3)nc21	inactive: -0.144%
Cc1ccc2c(n1)Oc1ccc(C(C)C(=O)OCC(=O)N(C)C)cc1C2 (configuration not stated)	inactive
O=C(O)COc1ccc(OCCNC[C@@H](O)COc2ccccc2)cc1	inactive: 2.99%
O=C1OC2(c3ccc(O)cc3Oc3cc(O)ccc32)c2ccccc21	inactive: -91.4%
Nc1nc2[nH]c(=O)c(=O)[nH]c2c(=O)[nH]1	inactive: 4.92%
COc1ccc2[nH]cc(CCNc3ccnc(-c4ccc5c(c4)OCO5)n3)c2c1	inactive: -18.9%
CCCCCCCCCCCCCCNCCO	inactive: 14.2%
